Test results: PMC6212790
The other results are listed elsewhere or left out. At the low end of the ranking the order means little.

These sequences were tested against T1, GST-Rok-C97-191 (UniProt O34857) (assay: protein binding microarray). Details: Rok is a gene silencer of Bacillus subtilis; high values mean tight binding; most listed sequences are background and not binding sites; double strand, one strand shown.
T1 sequence: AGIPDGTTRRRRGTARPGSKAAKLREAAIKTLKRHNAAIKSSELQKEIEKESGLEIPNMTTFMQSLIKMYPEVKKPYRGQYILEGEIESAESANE
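Further: rank score from −0.5 (least bound) to 0.5 (best bound).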

Sequence | binding signal [E-score]
CTGCTTGA | -0.175
ATTCACAC | -0.000693
ATGCTTGC | -0.196
CTCTAACC | -0.1
AACTTATA | 0.345
ACGCTTGA | 0.00298
CCAATGGG | -0.0528
CCGGTGCC | -0.203
CATCGACC | -0.122
GGGTATAA | 0.284
AAAAAACC | 0.127
ATAGCAAC | 0.227
AGCGCGGA | -0.153
CCCTTGCG | -0.329
AATATAAG | 0.26
CTCACGCC | -0.239
ATTTCAGA | 0.184
AATTGAGT | 0.0803
ACTTTACA | 0.138
CCCTCATC | -0.104
CTAGATAC | 0.204
AGGTCGTG | -0.157
CACCGCAC | -0.164
AGACTTGC | -0.0835
AGAGTCTG | -0.116

Sequence | binding signal [E-score]
TGGGTACA | -0.0341
ATAGGATG | 0.153
TAATCAGA | -0.0111
CGTTACAG | 0.237
CTTTAAGA | -0.0814
GACCCACC | -0.13
ACGGTGAG | -0.188
GAGGCCCA | -0.341
CGCCAGGC | -0.152
ACTCACGG | 0.0645
AACGTACG | 0.175
CGCCATGA | -0.312
GAAAACCA | -0.143
AGCATGAG | 0.0613
ATAGACAT | 0.0544
ATCGTGCA | -0.0632
CCTTATTC | -0.0117
CAAACCAA | 0.0242
CACCTGGA | -0.0965
CCGGGTCG | -0.287
GGTTTTAA | -0.0897
CTTAGCGA | 0.0126
AACGATAA | 0.194
TCAAACCA | -0.163
GGCGCATA | -0.0492

Sequence | binding signal [E-score]
AAGGCACG | -0.127
AGAAACAG | 0.171
TCCGCCGA | -0.185
ACCCAGCA | -0.195
ATTCAGAA | -0.017
CGATCGGA | 0.18
ATCGCCCC | -0.299
ACAACCAC | -0.126
GCACGTAC | -0.0143
AGTAGTGC | 0.12
ACTAATTA | 0.444
GAGAACGC | -0.129
GCACAACA | -0.00183
ATTATCAG | 0.276
GTCCGTTA | -0.204
TACCGACA | 0.084
AGTCCTAC | -0.0776
GATAAGAC | 0.14
TACCTATA | 0.375
CACCATCC | -0.174
ATAAAGCC | -0.0227
CGAATACC | 0.175
CCGGGTCC | -0.172
CGCATAGA | -0.163
CTTTTACC | 0.149

Sequence | binding signal [E-score]
AATAATCG | 0.061
GTTCAGGA | -0.0368
CTACCGGC | 0.0318
CTAACGAC | 0.00996
CTGGTCCC | -0.117
ACTAAGTA | 0.319
AAGTGTTA | 0.21
TCGCAGAA | -0.0616
GGCCTTGA | -0.262
AGGCTGAA | -0.136
CGAATAGC | -0.266
GGTTGGGA | 0.103
AGATACGG | -0.0102
AGGACCCG | -0.0941
AGCCGCAT | -0.0834
AATCGTCC | -0.11
ACGTCTCT | -0.0426
AAGCAAAT | 0.0876
ACGCTCGA | -0.18
CAAAGTAG | 0.194
CATTTACA | 0.277
CACTCGGC | -0.164
ATCGACAC | -0.0117
GACCCATC | -0.114
TCCCTAAA | -0.186

Sequence | binding signal [E-score]
GCGAATAA | -0.031
ACTTGACC | -0.0191
TCGAGAAA | 0.0918
CCTTTATC | -0.0868
ACTGAGTG | 0.0937
GAGTCTGA | -0.0859
GGACAAGA | -0.148
TAGTATCA | 0.174
GGTAAATA | 0.318
GACCCCAA | -0.283
CTGCAGAA | -0.138
ACGGCACA | 0.076
ACTAATCC | 0.0831
CACCCTCA | -0.127
CGACACAA | -0.127
AATAAATC | 0.137
AAAAGTCG | -0.0455
CTCACTTA | -0.0686
ATTAAGGC | -0.153
GTGAAGAA | 0.0267
TTCGAGAA | 0.0724
CATAAAGA | -0.0708
AGGATATA | 0.156
GATGAAGC | 0.0229
GCCATAAC | -0.235

Sequence | binding signal [E-score]
AAGGAATG | -0.0341
CTCGCATA | 0.00224
CATGAAGG | -0.11
CTAGCCAG | -0.131
CCGCTGGC | -0.2
ACGCAAAC | 0.103
ATTGTTTA | 0.0735
AGCTACGA | 0.191
AACCGGTG | -0.243
ATCCCCTC | -0.148
GAACCTTC | -0.173
AGCTAGTG | 0.253
CCAGGCCA | -0.168
ACATCGAT | 0.215
AATTGGTA | 0.331
CGCCGACG | -0.0857
CTTTGCTA | 0.223
AAGGCTGC | -0.111
AATTACGT | 0.273
CGGTTGAC | -0.17
GGTCTGCA | -0.0588
AATCCGCC | -0.126
CAGTTTCC | -0.0842
CAACCTGG | -0.182
GGGGGGAC | -0.218

Sequence | binding signal [E-score]
CAATAGTG | 0.236
ACTGAACA | 0.141
AGTTATCA | 0.253
GACTAATA | 0.29
ACCATGCC | -0.0186
CTACTGTA | 0.384
ATACTTCG | 0.0591
AAACATCC | 0.1
AATAGCCG | 0.0427
ACCTCCTA | 0.124
CCGGGACA | -0.169
CGAGGTAC | -0.0906
CCACAACC | -0.186
CCGCTATA | 0.207
ACCGTAGA | 0.0796
GGTTGCTA | 0.16
ATGAGTGA | -0.0491
ATGTCGTA | 0.19
CGCGTATC | -0.00618
ACTACTGC | 0.113
CTGTGGCC | -0.18
CGGAGTAC | 0.0635
